Source: the DeepSol protein solubility set

Assay: soluble on expression in E. coli; label from the status in PepcDB or PDB records

Row | Sequence | soluble on expression in E. coli
1 | GPHMYEAPPATLEAIHPKGLRVSVPDEGFSLFAFHGKLNEEMEGLEAGHWSRDITKPKNGRWIFRDRNAALKIGDKIYFWTFVIKDGLGYRQDNGEWTVEGFVDEA | soluble
2 | MAEKVAVLLGGTSAEREVSLLSGQAVLAGLKEAGIDAYGVDTKDFPVTQLKEQGFDKVFIALHGRGGEDGTLQGVLEFLQLPYTGSGVMASALTMDKLRTKLVWQALGLPISPYVALNRQQFETLSPEELVACVAKLGLPLIVKPSHEGSSVGMSKVDHASELQKALVEAFQHDSDVLIEKWLSGPEFTVAILGDEVLPSIRIQPPGVFYDYDAKYLSDKTQYFCPSGLSDESEQQLAALALQAYHALDCSGWGRVDVMQDRDGHFYLLEVNTSPGMTSHSLVPMAARQYGLSFSQLVARILMLAD | not soluble
3 | MGHHHHHHGGHMSLARIHARRRGKSGSKRIYRDSPPEWVDMSPEEVEKKVLELYNEGYEPSMIGMILRDRYGIPSVKQVTGKKIQKILKEHGVEIKYPEDLKALIKKALKLRAHLEVHRKDKHNRRGLQLIEAKIWRLSSYYKEKGVLPADWKYNPDRLKIEISKEGGS | soluble
4 | MGIDINHKHDRVARRTAPKSENPYLRLLSKLYAFLARRTGEKFNAIVLKRLRMSRRNRQPLSLAKLARAVQKAGNENKTVVTLSTVTDDARLYTVPKISVAALHVTEGARARILAAGGEIITLDQLALKSPKGENTVFLQGPRSAREAEKHFGPAPGVPHSHTKPYVRSKGRKFERARGRRASRAYKN | not soluble
5 | MKVNPFVSSDSGKSRKAHFNAPSHERRRIMSAPLTKELRTKHGIRAIPIRTDDEVVVMRGRHKGNTGRVLRCYRKKFVIHIDKITREKANGSTVHIGIHPSKVRFV | not soluble
6 | MNTQQLAKLRSIVPEMRRVRHIHFVGIGGAGMGGIAEVLANEGYQISGSDLAPNPVTQQLTSLGATIFFNHRPENVRDASVVVVSSAISADNPEIVAAHEARIPVIRRAEMLAELMRFRHGIAIAGTHGKTTTTAMVSSIYAEAGLDPTFVNGGLVKAAGVHARLGHSRYLIAEADESDASFLHLQPMVAIVTNIEADHMDTYHGDFENLKQTFINFLHNLPFYGRAVMCVDDPVIRELLPRVGRQTTTYGFSEDADVRVEDYQQIGPQGHFTLLRQGMPDLHVTLNAPGRHNALNAAAAVAVATEEGIADDAILRALESFQGTGRRFDFLGEFPLEPVNGKAGTAMLVDDYGHHPTEVDATIKAARAGWPDKNLVMLFQPHRYTRTRDLYDDFANVLTQVDALLMLDVYPAGEAPIPGADSRSLCRTIRNRGKIDPILVSDPAQVATMLAPVLTGNDLILVQGAGNVGKIARYLSEIKLKPQIQEEEQHG | not soluble
7 | MVIGVIFYNTKGNFLRVKCLDCGNQQVVFDRAASYVQCIICGKTLVEPTGGKSKIKAQILEVLD | not soluble
